# In article PMC6919601, “Identification of Plasmodium dipeptidyl aminopeptidase allosteric inhibitors by high throughput screening” (PLoS ONE, 2019):
# Out of some 110,000 compounds screened, about 230 (0.21%) showed an effect of 50% or more. The list shows a part of the results.
# Target: DPAP1 (Plasmodium falciparum, UniProt Q8IIJ9)
# Experiment: primary screen, percent inhibition; read by cleavage of a fluorogenic dipeptide substrate; higher = more effect of the substance
# Set-up: species or system P. falciparum D10 trophozoite lysates; single well
# 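Also: 30 min substrate incubation versus DMSO and 10 µM JCP410 controls.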
# Chain of DPAP1 (Q8IIJ9 whole entry, looked up): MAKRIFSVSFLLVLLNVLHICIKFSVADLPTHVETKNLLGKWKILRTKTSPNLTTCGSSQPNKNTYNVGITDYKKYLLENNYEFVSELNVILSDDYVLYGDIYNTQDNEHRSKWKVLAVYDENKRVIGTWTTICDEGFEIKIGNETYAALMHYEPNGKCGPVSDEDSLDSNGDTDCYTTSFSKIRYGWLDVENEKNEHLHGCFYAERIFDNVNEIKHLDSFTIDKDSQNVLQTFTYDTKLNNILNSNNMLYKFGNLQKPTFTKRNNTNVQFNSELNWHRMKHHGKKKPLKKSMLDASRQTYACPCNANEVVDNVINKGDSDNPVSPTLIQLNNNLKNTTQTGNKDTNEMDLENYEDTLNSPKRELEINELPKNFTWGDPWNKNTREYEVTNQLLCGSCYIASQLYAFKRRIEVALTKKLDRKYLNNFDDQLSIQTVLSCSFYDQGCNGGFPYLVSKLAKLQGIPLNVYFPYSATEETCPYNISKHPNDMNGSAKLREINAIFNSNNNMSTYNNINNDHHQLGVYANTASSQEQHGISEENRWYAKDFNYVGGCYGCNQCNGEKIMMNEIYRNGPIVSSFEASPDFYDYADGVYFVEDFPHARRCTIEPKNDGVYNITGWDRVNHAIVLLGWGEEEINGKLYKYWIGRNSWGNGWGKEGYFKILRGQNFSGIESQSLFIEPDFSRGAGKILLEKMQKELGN
row,SMILES,% Inhibition @ 10 uM [%]
1,Clc1ccc2oc(-c3ccccc3)c/c(=N\CC3CCCO3)c2c1 (stereo not drawn),-1.18
2,C/C(=N\N=C\c1ccccn1)c1nnn(-c2nonc2N)c1C,-1.68
3,COc1cc(CNC(=O)c2cc(-c3ccc(F)cc3)[nH]n2)cc(OC)c1OC,3.13
4,Cc1ccc(C(=O)N/C(=C/c2cccs2)C(=O)NCCCn2cccn2)cc1C,0.503
5,CC1(C)C(C=C(Cl)Cl)C1C(=O)N1CCN(Cc2ccc3c(c2)OCO3)CC1 (stereo not drawn),-7.96
6,CC1CC(=O)CCN1C(=O)c1ccccc1 (stereo not drawn),-1.92
7,COc1ccccc1CCNC1CCCCC1,-2.35
8,Cc1ccnc2nc(NC(=O)Cc3ccc(Cl)cc3)nn12,2.05
9,COc1cccc(CN2CCN(C(=O)COc3ccccc3)CC2)c1,-3.24
10,CCOC(=O)c1[nH]c2ccc(OC)cc2c1NC(=S)N(C)Cc1ccccc1,1.68
11,Cn1cc(NC(=O)NCCC2=CCCCC2)c2ccccc2c1=O,-3.22
12,O=C(NC(C(=O)O)C12CC3CC(CC(C3)C1)C2)c1ccc(-c2ccccc2)cc1 (stereo not drawn),2.86
13,N#Cc1ccc(OC(=O)COc2ccc([N+](=O)[O-])cc2)cc1,3.58
14,CCNc1nc(CC)nc(OCC)n1,-8.49
15,Cc1ccc(-c2cc(C(=O)N3CCCC3)c3ccccc3n2)s1,4.39
16,CC(=O)Nc1ccc(NC(=O)CN(c2ccccc2F)S(=O)(=O)c2ccc(C)cc2)cc1,5.29
17,O=C(Nc1ccccn1)c1ccc2ccccc2c1O,-1.85
18,C/N=c1\c(NS(=O)(=O)c2ccc(F)c(C)c2)c(O)oc2ccccc12,4.47
19,N=C1/C(=C\c2coc3ccccc3c2=O)C(=O)N=C2SC(c3cccnc3)=NN12,-9.6
20,CC(C)Cc1cc(C(=O)Nc2cnn(Cc3ccc(Cl)cc3Cl)c2)no1,2.4
21,Cc1ccc2nc(NC(=O)Cn3cc4c(n3)CCCCC4)sc2c1,3.4
22,Cn1ncc(Br)c1C(=O)Nc1nc2ccc(S(C)(=O)=O)cc2s1,-0.725

row,SMILES,% Inhibition @ 10 uM [%]
1,CC(C)OCCCNc1ncnc2c1c(-c1ccccc1)cn2-c1ccccc1,3.99
2,COc1ccc(CNC(=O)c2ccc3c(c2)C(=O)N(Cc2ccco2)C3=O)cc1,0.708
3,CCOC(=O)C1=CN(C)C=C(C(=O)OCC)C1c1cccc(Oc2ccccc2)c1,4.99
4,CCOC(=O)NC1(C(F)(F)F)NC(=O)N(c2ccc(C)cc2)C1=O (stereo not drawn),-0.132
5,Cc1nc2ncnn2c(O)c1CCC(=O)NCC(C)c1ccccc1 (stereo not drawn),-4.97
6,CCc1nnc2c(NCc3ccccc3Cl)nc3ccccc3n12,-4.47
7,CCOC(=O)C1CCN(c2ccc(Cl)cn2)CC1,3.76
8,Cc1ccc(CNC(=O)c2ccc3c(Cl)c4c(nc3c2)CCCC4)o1,4.41
9,OC1C2CCC1C(N1CCCCC1)CC2 (stereo not drawn),2.92
10,Cc1nc2c(c3c1[nH]c1ccccc13)/C(=N\O)CC(C)(C)C2,-1.05
11,Cc1ccsc1CN(C(=O)c1ccc(OC(C)C)cc1)C1CCS(=O)(=O)C1 (stereo not drawn),2.19
12,CCOc1ccc(N2CC(C(=O)Nc3c(C)cc(Br)cc3C)CC2=O)cc1 (stereo not drawn),4.05
13,CCOC(=O)c1c(N)c(C#N)n2c1CCC2,-2.55
14,CC(C)C[C@H](NC(=O)OCc1ccccc1)C(=O)N[C@H](C#N)CCC(=O)OC(C)(C)C,3.19
15,O=C(c1cccnc1Cl)N1CCN(c2ccc(F)cc2)CC1,-1.89
16,CC(C)OCCCNC(=O)CCC(=O)N1CCSc2ncccc21,-9.2
17,c1ccc2c(c1)c1ccccc1n2CCCN1CCOCC1,-3.5
18,CS(=O)(=O)N1CCN(c2ccc(NC(=O)c3ccc4ccccc4c3)cc2)CC1,-6.39
19,O=C1C2C3CCC(C3)C2C(=O)N1c1ccc(Cl)c(Cl)c1 (stereo not drawn),-4.69
20,Cc1ccnc(NC(=O)c2ccc(-c3ccccc3)cc2)n1,0.161
21,COc1cc(/C=C2/Sc3ccccc3C2=O)cc(Br)c1OC,0.76
22,Cc1nc2nc(C(F)(F)F)nn2c(O)c1Cc1ccccc1,-1.52

row,SMILES,% Inhibition @ 10 uM [%]
1,C=CCSC1=C(C#N)C(c2ccccc2C)CC(=O)N1 (stereo not drawn),-1.08
2,COc1ccc(-c2nc(CNS(=O)(=O)c3c(C)cc(C)cc3C)cs2)cc1,-2.45
3,Cc1ccc(NC(=O)C2CC(=O)N(c3ccccc3)C2)cc1 (stereo not drawn),-0.28
4,COCCNC(=O)CCCn1nc(C)n2c(cc3sccc32)c1=O,1.8
5,COc1ccc(C2NC(C(=O)O)CS2)cc1COCC(F)(F)F (stereo not drawn),9.86
6,Nc1ccc2c(c1)S(=O)(=O)c1cc(N)ccc1O2,-0.693
7,COc1ccccc1Oc1ccc(N/C=C2/CCCCC2=O)cc1,3.99
8,CCn1cc(CNC(=O)C2C3CCC(C3)C2C(=O)O)cn1 (stereo not drawn),2.7
9,COc1ccc(CCC2NCCn3cccc32)cc1OC (stereo not drawn),-0.128
10,Cc1ccc(C)c(Cn2nnc(C(=O)NCc3ccc(F)cc3)c2N)c1,1.26
11,N#C/C(=C/c1cccc(C(F)(F)F)c1)C(=O)Nc1ccc(Cl)cc1,-1.32
12,CCCNC(=O)CCc1cn(Cc2ccc(F)cc2)c2ccccc12,-0.822
13,Cc1cccc(C(=N)NOC(=O)COc2cc(C)c(Cl)c(C)c2)c1,2.03
14,O=C(CSCc1cnn(-c2ccccc2)c1-n1cccc1)NC1CCN(Cc2ccccc2)CC1,-1.08
15,Cc1cc(Cl)nc(Cl)c1C(=O)NCc1ccc(Cl)cc1,-0.597
16,O=C(CSc1ccc(Cl)cc1)NCCSc1nc2ccccc2s1,-2.39
17,CCOC(=O)N1CCC(NC(=O)C2CCN(C(=O)c3cc4sccc4n3CC)CC2)CC1,4
18,Cc1c2cnn(CC(=O)N3CCN(c4ccccn4)CC3)c(=O)c2c(C)n1Cc1ccccc1F,1.22
19,O=C(O)CSc1n[nH]c(-c2ccncc2)n1,-7.18
20,CC1CCN(c2nc3ccc(C(=O)NCc4cccnc4)cc3s2)CC1,-2.37
21,CCC(CC)NCc1cc(Br)c(OC)cc1OC,-1.56
22,CCOc1ccc(-n2nnc(-c3nc(-c4ccncc4)no3)c2N)cc1,5.22
